Test results from the RNAGym collection of RNA variant scans (doi:10.1073/pnas.2313332121).
Variants at the background level are over-represented here.

B1: TPR 5TU (parent)
chain: GGAUCUUCUCGAUCUAACAAAAAAGACAAAUCUGCCACAAAGCUUGAGAGCAUCUUCGGAUGCAGAGGCGGCAGCCUUCGGUGGCGCGAUAGCGCCAACGUUCUCAACUAUGACACGCAAAACGCGUGCUCCGUUGAAUGGAGUUUAUCAUG

Variants of: B1
Test: polymerase ribozyme fitness, log enrichment relative to wild type (log ratio); higher = more active; in vitro selection for triplet polymerase activity
Summary of the method: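 Mutant libraries for each subunit of a heterodimeric triplet polymerase ribozyme were made by PCR and then transcribed. Each library underwent one round of in vitro selection in triplicate: annealing with a biotinylated primer, the partner subunit and triplets, frozen incubation at −7 °C, gel excision of extended constructs, streptavidin-bead capture and RT-PCR. Input and output libraries were Illumina-sequenced, and only genotypes with ≥10 input reads and ≥1 read per output were kept. Fitness is the logarithm, base 2, of genotype enrichment over wild-type enrichment, computed from inverse-variance-weighted replicate averages.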

Variant | polymerase ribozyme fitness (log ratio)
GGAUCUUCUCGAUCUAACAAAAAAGACAAAUCUGCCACAAAGCUUGAAAGCAUCUUCGGAUGCAGAGGCGGCAGCCUUUGGUGGCGCGAUAGCGCCAACGUUCUCAACUAUGACACGCAAAACGCGUGCUCUGUUGAAUGGAGUUUAUCAUG | ≤ -4.2
GGAUCUUCUCGAUCUAACAAAAAAGACAAAUCUGCCACAAAGCUUGAAAGCAUCUUCGGAUGCAGAGGCGGCAGCCUUCGGUGGAGCGAUAGCGCCAACGUUCUCAACUAUGACACGCAAAACGCGUGCUCCUUUGAAUGGAGUUUAUCAUG | ≤ -4.2
GGAUCUUCUCGAUCUAACAAAAAAGACAAAUCUGCCACAAAGCUUGAAAGCAUCUUCGGAUGCAGAGGCGGCAGCCUUCGGUGGGGCGAUAGCGCCAACGUUCUCAACUAUGACACGCAAAACGGGUGCUCCGUUGAAUGGAGUUUAUCAUG | -4.1
GGAUCUUCUCGAUCUAACAAAAAAGACAAAUCUGCCACAAAGCUUGAAAGCAUCUUCGGAUGCAGAGGCGGCAGCCUUCGGUGGUGCGAUAGCGCCAAAGUUCUCAACUAUGACACGCAAAACGCGUGCUCCGUUGAAUGGGGUUUAUCUUG | ≤ -4.2
GGAUCUUCUCGAUCUAACAAAAAAGACAAAUCUGCCACAAAGCUUGAAAGCAUCUUCGGAUGCAGAGGCGGCAGCCUUCGGUGGCGGGAUAGCGCCAACGUUCUCAACUAUGACACGUAAAACGCGUGCUCCGUUGAAUGGAGUUUAUCAUG | ≤ -4.2
GGAUCUUCUCGAUCUAACAAAAAAGACAAAUCUGCCACAAAGCUUGAAAGCAUCUUCGGAUGCAGAGGCGGCAGCCUUCGGUGGCGCGAUAGCGCAAACUUUCUCAACUAUGACACGCAAAACGCGUGCUCCGUUGAAUGGAGUUUAUCAUG | ≤ -4.2
GGAUCUUCUCGAUCUAACAAAAAAGACAAAUCUGCCACAAAGCUUGAAAGCAUCUUCGGAUGCAGAGGCGGCAGCCUUCGGUGGCGCGAUAGCGCAAACGUUCUCAACUAUGACACGCAAAACGCGAGCUCCGUUGAAUGGAGUUUAUCAUG | ≤ -4.2
GGAUCUUCUCGAUCUAACAAAAAAGACAAAUCUGCCACAAAGCUUGAAAGCAUCUUCGGAUGCAGAGGCGGCAGCCUUCGGUGGCGCGAUAGCGCUAACGUUCUCAACUAUGACACGCAAAACGCGUGCUCCGUUGAAUGGAGUUUAUCAUG | -0.356
GGAUCUUCUCGAUCUAACAAAAAAGACAAAUCUGCCACAAAGCUUGAAAGCAUCUUCGGAUGCAGAGGCGGCAGCCUUCGGUGGCGCGAUAGCGCCAACGUUGUCAUCUAUGACACGCAAAACGCGUGCUCCGUUGAAUGGAGUUUCUCAUG | ≤ -4.2
GGAUCUUCUCGAUCUAACAAAAAAGACAAAUCUGCCACAAAGCUUGAAACCAUCAUCGGAUGCAGAGGCGGCAGCCUUCGGUGGGGCGAUAGCGCCAACGUUCUCAACUAUGACACGCAAAACGCGUGCUCCGUUGAAUGGAGUUUAUCAUG | ≤ -4.2
GGAUCUUCUCGAUCUAACAAAAAAGACAAAUCUGCCACAAAGCUUGAAAGCAUCUUCCGAUGCAGAGGCGGCAGCCUGCGGUGGCGCAAUAGCGCCAACGUUCUCAACUAUGACACGAAAAACGCGUGCUCCGAUGAAUGGGGUUUAUCAUG | ≤ -4.2
GGAUCUUCUCGAUCUAACAAAAAAGACAAAUCUGCCACAAAGCUUGAAAGCAUCUUCGGAUACAGAGCCGGCAGCCUGCGGUGGCGAGAUUGCGCCAUCGUUCUCAACUAUGACACGCAAAACGCGUGCUCCGUUGAAUGGAGUUUAUCAUG | ≤ -4.2
GGAUCUUCUCGAUCUAACAAAAAAGACAAAUCUGCCACAAAGCUUGAAAGCAUCUUCGGAUGCAGAUGCGGCAGCCUUCCGUGGUGCGAUAGCGCCAACGUUCUCAACUAUGACACGCAAAACGCGUGCUCUGUUGAAUGGAGUUUAUCAUG | ≤ -4.2
GGAUCUUCUCGAUCUAACAAAAAAGACAAAUCUGCCACAAAGCUUGAAAGCAUCUUCGGAUGCAGAGACGGCAGCCUUCGGUGGCGCAAUAACGCCAACGUUCUCAACUAUGACACGCAAAACGCGUGCUCCGUUGAAUGGAGUUUAUCAUG | ≤ -4.2
GGAUCUUCUCGAUCUAACAAAAAAGACAAAUCUGCCACAAAGCUUGAAAGCAUCUUCGGAUGCAGAGGCAGCAGCCUUCGGCGGCACGAUAGCGCCAACGUUAUCAACUAUGACACGCAAAACGCGUGCUCCGUUGAAUGGAGUUUAUCAUG | ≤ -4.2
GGAUCUUCUCGAUCUAACAAAAAAGACAAAUCUGCCACAAAGCUUGAAAGCAUCUUCGGAUGCAGAGGCCGCAGCCUUCGGUGGUGCGGUAGCGCCAACGUUCUCAACUAUGACACGCAAAACGCGUGCUCCGGUGAAUGGAGUUUAUCAUG | ≤ -4.2
GGAUCUUCUCGAUCUAACAAAAAAGACAAAUCUGCCACAAAGCUUGAAAGCAUCUUCGGAUGCAGAGGCGGCAGCCUUCGGUGCCGCGAUAGCGCCAACCUUCUCAACUAUGACACGCAAAACGCGUGCUCCGUUGAAUGGAGUUUAUCAUG | ≤ -4.2
GGAUCUUCUCGAUCUAACAAAAAAGACAAAUCUGCCACAAAGCUUGAAAGCAUCUUCGGAUGCAGAGGCGGCAGCCUUCGGUGGCGCAAUAGCGCAAACGUUCUCAACUAUGACACGCAAAACGCGUGCUCCGUUGAAUGGUGUUUAUCAUG | ≤ -4.2
GGAUCUUCUCGAUCUAACAAAAAAGACAAAUCUGCCACAAAGCUUGAAAGCAUCUUCGGAUGCAGAGGCGGCAGCCUUCGGUGGCGCGAUAGCACCAACGGUCUCAACUAUGACACGCAGAACGCGUGCUCCGUUGAAUGGAGUUUAUCAUG | ≤ -4.2

Variant | polymerase ribozyme fitness (log ratio)
GGAUCUUCUCGAUCUAACAAAAAAGACAAAUCUGCCACAAAGCUUGAAAGCAUCUUCGGAUGCAGAGGCGGCAGCCUUCGGUGGCGCGAUAGCGCCAACGUUCUCAACUAUGACACGCAAAACGCGUGCUCCGUUCAAUGGAGUUUAUCAUG | -2.57
GGAUCUUCUCGAUCUAACAAAAAAGACAAAUCUGCCACAAAGCUUGAAAGCAAUUUUGGAUGCAGAGGCGGCAGCCUUCGGUGGUGCGAUAGCGCCAACGUUCUCAACUAUGACACGCAAAACGCGUGCUCCGUUGAAUGGAGUUGAUCAUG | ≤ -4.2
GGAUCUUCUCGAUCUAACAAAAAAGACAAAUCUGCCACAAAGCUUGAAAGCAUCCUCGGAUGCAGAGGCGGCAGCCUUCGAUGGCGCGAUACCGCCAACGUUCUCAACUAUGAUACGCAAAACGCAUGCUCCGUUGAAUGGAGUUUAUCAUG | ≤ -4.2
GGAUCUUCUCGAUCUAACAAAAAAGACAAAUCUGCCACAAAGCUUGAAAGCAUCUACGGAUGCAGAGGCGGCAGCCUUCGGUGGCGCGAUAGCGCCAACGUUCUCAGCUAUGACACGCAAAACGCGUGCUCCGUUGAAUGGAGUUUAUCAUG | ≤ -4.2
GGAUCUUCUCGAUCUAACAAAAAAGACAAAUCUGCCACAAAGCUUGAAAGCAUCUACGGAUGCAGAGGCGGCAGGCUUCGGUGUCGCGAUUGCGCCAACGUUCUCAACUAUGACACGCAAAACGCGUGCUCCGUUGAAUGGAGGUUAUCAUG | ≤ -4.2
GGAUCUUCUCGAUCUAACAAAAAAGACAAAUCUGCCACAAAGCUUGAAAGCAUCUACGGAUGCAGAGGCGGCAGCCUUCGGUGGUGCGAUAGCGCCAACGUUCUCAACUGUGACACGCAAAACGCGUGCUCCGUUGAAUGUAGUUUAUCAUG | ≤ -4.2
GGAUCUUCUCGAUCUAACAAAAAAGACAAAUCUGCCACAAAGCUUGAAAGCAUCUACGGAUGCAGAGGCGGCAGCCUUCGGUGGCGCGAUAGCGCCAACGUUCUCAACGAUGACACGCAAAACGCGUGCUCCGUUGAAUGGAGUUUAUCAUG | -1.39
GGAUCUUCUCGAUCUAACAAAAAAGACAAAUCUGCCACAAAGCUUGAAAGCAUCUUCGGAAGCAGAGGCGGCAUCCUUCGGUCGCGCGAUUGCGCCAACGUUCUCAACUAUGACACGCAAAACGCGUGCUCCGUUGAAUGAAGUUUAUCAUG | ≤ -4.2
GGAUCUUCUCGAUCUAACAAAAAAGACAAAUCUGCCACAAAGCUUGAAAGCAUCUUCGGAUGCAGAGGCGGCAGCCGUCGGUGGCGCAAUAGCGCCAACGUUCUCGACUAUGACACGCAAAACGCGUGCUCCGUUGAAUGGAGUUUAUCAUG | ≤ -4.2
GGAUCUUCUCGAUCUAACAAAAAAGACAAAUCUGCCACAAAGCUUGAAAGCAUCUUCGGAUGCAGAGGCGGCAGCCUUCGGCGGAGCGAUAGCGCCAACGUUCUCAACUAUGACACGCAAAACGCGUGCUCCGUUGAAUGGAGUUUAUCAUG | ≤ -4.2
GGAUCUUCUCGAUCUAACAAAAAAGACAAAUCUGCCACAAAGCUUGAAAGCAUCUUCGGAUGCAGAGGCGGCAGCCUUCGGUGGCGCGACAGCGCCAACGUUCUCAACUAUGACACGCAAAACGCGUGCUCCGUAGAAUGGAGAUUAUCAUG | ≤ -4.2
GGAUCUUCUCGAUCUAACAAAAAAGACAAAUCUGCCACAAAGCUUGACGGCAUCUUCGGAUGCAGAGGCGGCAGCCUUCGGUUGCGCGAUAGCGCCAACGUUCUCAACUAUGACACGCAAAACGCGUGCUCCGUUGAAUGGAGUUUAUCAUG | ≤ -4.2
GGAUCUUCUCGAUCUAACAAAAAAGACAAAUCUGCCACAAAGCUUGACAGCUUCUUCCGAUGCAGAGGCGGCAGCGUUCGGUGGCGCGAUCGAGCCAACGUUCUCAACUAUGACACGCAAAACGCGUGCUCCGUUGAAUGGAGUUUAGCAUG | ≤ -4.2
GGAUCUUCUCGAUCUAACAAAAAAGACAAAUCUGCCACAAAGCUUGACAGCAUCUUCGGCUGCAGAGGCGGUAGCCUUCGGUGGCGCGAUAGCGCCAACGUUCUCAACUAUGACACGCAAAACGCGUGCUCCGUUGAAUGGAGUUUAUCAUG | ≤ -4.2
GGAUCUUCUCGAUCUAACAAAAAAGACAAAUCUGCCACAAAGCUUGACAGCAUCUUCGGCUGCAGAGGCGGCAGCCUUCGGUGUCGCGAUAGCGCCAACGUUCUCAACUAUGACACGCAAAACGUGUGCUCCGUUGAAUGGAGUUUAUCAUG | ≤ -4.2
GGAUCUUCUCGAUCUAACAAAAAAGACAAAUCUGCCACAAAGCUUGACAGCAUCUUCGGGUGCAGAGGCGGCAGCCUUCGGUGGCGCGAUUGCGCCAACGUUCUCAACUAUGACACGCAAAACGCGAGCUACGUUGAAUGGAGUUUAUCAUG | ≤ -4.2
GGAUCUUCUCGAUCUAACAAAAAAGACAAAUCUGCCACAAAGCUUGACAGCAUCUUCGGAUGCAGCGGCGCCAGCCUUCGGUGGCGCGAUAGCGCCAUCGUUCUCAACUAUGACACGCAAAACGCGUGCUCCGUUGAAUGGAGUUUAUCCUG | ≤ -4.2
GGAUCUUCUCGAUCUAACAAAAAAGACAAAUCUGCCACAAAGCUUGACAGCAUCUUCGGAUGCAGAGGCGGCGGCCUUGGGUGGCGCGAUAGCUCCAACGUUCUCAACUAUGACACGCAAAACGCGUGCUCCGUUGAACGGAGUUUCUCAUG | ≤ -4.2
GGAUCUUCUCGAUCUAACAAAAAAGACAAAUCUGCCACAAAGCUUGACAGCAUCUUCGGAUGCAGAGGCGGCUGCCUUCGGUGGCGCGAUAGCGCCAACGCUCACAACUAUGACGCGCAAAACUCGUGCUCCGUUGAAUGGAGUUUAUCAUG | ≤ -4.2
